Measurements as given in the supplement of paper PMC3334620.
In all, about 33,000 sequences were measured (“E-score (-0.5 to 0.5)”: median about -0.021, highest 2% from about 0.32 on). The list shows a part of the results.

What follows are sequences tested against T1, Zap1 (UniProt P47043) (assay: PBM E-score (8-mer binding enrichment) (E-score (-0.5 to 0.5)); higher = stronger / more preferred TF binding; most listed sequences are background and not binding sites). Settings: protein concentration: 200 nM; construct: GST-full length.
T1 sequence: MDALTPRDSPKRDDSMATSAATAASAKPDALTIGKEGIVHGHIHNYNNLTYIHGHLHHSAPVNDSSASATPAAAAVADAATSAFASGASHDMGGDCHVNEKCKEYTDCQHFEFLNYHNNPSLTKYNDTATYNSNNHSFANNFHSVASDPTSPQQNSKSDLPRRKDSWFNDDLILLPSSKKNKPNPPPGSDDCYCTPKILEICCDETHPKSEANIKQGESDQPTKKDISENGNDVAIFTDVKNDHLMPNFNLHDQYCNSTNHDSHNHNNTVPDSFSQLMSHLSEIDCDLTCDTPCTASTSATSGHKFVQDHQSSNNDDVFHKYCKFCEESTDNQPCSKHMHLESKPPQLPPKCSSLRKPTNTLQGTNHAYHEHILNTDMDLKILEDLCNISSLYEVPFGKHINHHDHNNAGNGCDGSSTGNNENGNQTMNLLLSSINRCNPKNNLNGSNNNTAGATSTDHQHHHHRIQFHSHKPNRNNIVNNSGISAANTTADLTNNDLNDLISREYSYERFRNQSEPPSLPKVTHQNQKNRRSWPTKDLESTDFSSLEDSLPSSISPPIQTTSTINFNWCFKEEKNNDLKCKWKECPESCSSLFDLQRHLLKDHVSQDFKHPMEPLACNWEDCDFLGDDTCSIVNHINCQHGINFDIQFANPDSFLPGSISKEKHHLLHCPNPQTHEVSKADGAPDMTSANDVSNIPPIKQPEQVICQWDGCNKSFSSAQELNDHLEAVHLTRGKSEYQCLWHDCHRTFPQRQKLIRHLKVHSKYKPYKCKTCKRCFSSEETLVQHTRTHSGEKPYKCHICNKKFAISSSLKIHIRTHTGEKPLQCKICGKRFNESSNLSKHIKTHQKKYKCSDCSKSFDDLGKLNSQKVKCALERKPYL
Method in brief: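 Universal all-10-mer Agilent arrays, double-stranded by primer extension on fresh or once-stripped slides, were probed with about 100-200 nM GST-tagged yeast transcription factors made by PURExpress. Fluorescent anti-GST detected bound protein, and masliner normalised the scans. E-scores from the Universal PBM Analysis Suite were given to each ungapped eight-base word pooled with its reverse complement.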

| Sequence | PBM E-score |
| --- | --- |
| GGTATCTA | 0.248 |
| CTAACGTA | 0.0705 |
| GTAATTAA | 0.174 |
| AGAGTGAC | -0.124 |
| ACGCTCTC | -0.218 |
| TCATATGA | 0.173 |
| AAGCAGCC | -0.11 |
| GGAAACGA | -0.0251 |
| AATGCCAT | -0.133 |
| AACCGGTT | 0.348 |
| TCCGCCGA | -0.0045 |
| AGAATTAA | -0.0676 |
| CAGGTCAG | 0.0791 |
| GCAGGTCA | 0.194 |
| AACCGGGT | 0.319 |
| ACACAGAA | 0.0785 |
| AGAGGGAA | -0.164 |
| CCGCAACC | 0.34 |
| AATCGTTG | -0.0687 |
| CGGCAGAG | -0.142 |
| AAGTCATG | -0.00269 |
| AAATGAGA | 0.0578 |
| CACTGAGA | -0.287 |
| ACACATTC | -0.0566 |
| AAATAGGT | 0.278 |

| Sequence | PBM E-score |
| --- | --- |
| AGCGCGTA | -0.172 |
| ACCTGAAG | 0.184 |
| GCGGACGA | 0.00898 |
| AGTAAACT | 0.0142 |
| TAAATTGA | 0.227 |
| ATCCCGAA | 0.079 |
| AATGTTCT | -0.0884 |
| AGAGCATG | -0.193 |
| TGCATACA | -0.0614 |
| CGGTACTA | 0.0114 |
| GTAGTCTA | 0.027 |
| CTACTAAG | 0.014 |
| CGAAAACA | 0.17 |
| CAGGCTAA | -0.222 |
| GTTACCTA | 0.294 |
| CGAGAGCA | 0.00534 |
| ATTTCCGC | 0.146 |
| AGATCCGA | -0.0672 |
| ATCCCCTA | 0.0194 |
| AGACCGGA | -0.0857 |
| AATTTCCC | -0.134 |
| CTTGAAAA | 0.189 |
| AACCGGTC | 0.14 |
| CGCGCCCG | -0.27 |
| ACGCTCAA | 0.0984 |

| Sequence | PBM E-score |
| --- | --- |
| AGCACAAG | -0.161 |
| CGCAAATC | -0.103 |
| CGACTGTC | -0.208 |
| CGCCGCAC | -0.136 |
| AAGCCTGT | -0.128 |
| CTGCCACA | -0.127 |
| CTCTAAAC | 0.0266 |
| GCGAGCAA | -0.169 |
| GGATGATA | 0.0603 |
| AACTCTAA | 0.0617 |
| CTGGCCAG | -0.202 |
| CGTTGAAA | 0.0873 |
| ATGCGATG | -0.221 |
| GCGTAAAA | 0.0769 |
| GCTCTCTA | -0.246 |
| ACGAGATG | -0.0678 |
| TCACCAAA | 0.113 |
| CTTTTAGC | 0.114 |
| AGCCGACC | -0.16 |
| CATTAGCC | -0.125 |
| CCACTGAA | 0.0888 |
| CACCCACA | 0.168 |
| GATTATCC | 0.0574 |
| CCACGGGA | -0.115 |
| TAGACCCA | 0.0451 |

| Sequence | PBM E-score |
| --- | --- |
| AGGTACAC | 0.11 |
| AGGAAGGG | -0.345 |
| CGGCCGTA | -0.0113 |
| AATCTTGG | -0.124 |
| CTCTAGCA | -0.267 |
| AAAAAAAA | 0.268 |
| ACTGTAGC | -0.136 |
| CCGCCAGG | 0.0562 |
| TCCTCCCA | -0.284 |
| CAGTGAGC | -0.179 |
| AGGGGTTG | 0.337 |
| ATGGTACA | 0.08 |
| TGCGACAA | 0.136 |
| GAAGAAGC | -0.231 |
| ACCCGAAC | 0.268 |
| CGCCCCCA | -0.2 |
| ATAGCATA | 0.0123 |
| GCTACTAA | -0.0541 |
| AACGCGGA | 0.0555 |
| GCCGGGGA | -0.283 |
| GGAGCCAA | -0.00669 |
| ATTAGGGG | -0.103 |
| ACCCCTCC | 0.237 |
| AAGCCACT | -0.191 |
| AAGGAGAT | -0.214 |

| Sequence | PBM E-score |
| --- | --- |
| CTAGCAAA | 0.131 |
| ACGAGACT | -0.16 |
| ACCCTACA | 0.419 |
| CATTCGAC | -0.0507 |
| CCGCAGGC | -0.0333 |
| CCTAGTGC | 0.0552 |
| AATTGGGC | -0.0672 |
| AAGCAGAA | -0.0277 |
| GATTTTCA | -0.027 |
| AGACAGTA | -8e-05 |
| AGGGGTAG | 0.312 |
| GAAAGCTA | -0.286 |
| AACGTCTG | -0.0903 |
| AATATCAT | 0.111 |
| AATCCTAA | -0.0168 |
| ACTCAACT | 0.0202 |
| TCCACAAA | 0.115 |
| ACGATTTA | 0.241 |
| GGAATCCA | -0.115 |
| GGTAACGA | 0.294 |
| ACGTATGA | 0.0742 |
| CTACGGCC | -0.247 |
| CGTTCCCC | -0.0626 |
| TGAATGCA | 0.0491 |
| CGGGGCAC | -0.127 |

| Sequence | PBM E-score |
| --- | --- |
| CCGGAATC | -0.0521 |
| GTATTGAA | 0.161 |
| CGGCGAAG | -0.0345 |
| AGTTCTCA | 0.0585 |
| TATACCAA | 0.213 |
| AAAAAATA | 0.0377 |
| TCTGGCAA | -0.101 |
| GCTATCAA | 0.0517 |
| AGGTTATG | 0.475 |
| AACAAATC | 0.0507 |
| GTCTACCA | -0.0785 |
| TGTCTCAA | 0.0208 |
| CGCGCGTA | -0.0338 |
| GATCTGGA | -0.094 |
| AGCTCGAT | -0.221 |
| GAAGCTAA | -0.162 |
| GCTACTCC | -0.0799 |
| CTGTAAAA | 0.206 |
| ACAGTATA | 0.0206 |
| GGACGTCA | -0.164 |
| GGCATCTA | -0.109 |
| ATTCTTAG | -0.0155 |
| ACAAACTA | 0.174 |
| ACACCCTG | 0.21 |
| AATTCTCG | 0.00213 |

| Sequence | PBM E-score |
| --- | --- |
| CCCCCGTC | -0.421 |
| GGCATGAA | -0.0985 |
| CCGCGTCC | 0.0947 |
| AGAACGCC | -0.0981 |
| AATGTAAT | 0.181 |
| GATTAACC | 0.173 |
| AATGCAAA | 0.119 |
| CGGTCCCA | -0.0137 |
| CCGGCGAA | -0.0278 |
| AATCCGGG | -0.0144 |
| ACCCTGTC | 0.193 |
| AGTAAGTA | 0.0433 |
| CGTCACGA | -0.0348 |
| CTCTCCCC | -0.205 |
| CGGCTACA | 0.0447 |
| GCTTTTCA | -0.115 |
| AGGCACTC | -0.203 |
| AATAGATA | 0.026 |
| GTCACGTA | -0.0578 |
| CTCGCGAG | 0.203 |
| AATGTTGT | -0.0367 |
| GGAGCCAC | -0.167 |
| ACTATTAT | 0.0475 |
| CCGCTGCG | -0.127 |
| ACTGGTTC | 0.0663 |

| Sequence | PBM E-score |
| --- | --- |
| ATCGAGCA | -0.0854 |
| ATGGTCTC | 0.179 |
| ATACGTAA | 0.0782 |
| CCAACCAG | -0.0525 |
| CGCAGGCA | -0.0398 |
| CAAATGGG | 0.0267 |
| CACGCCGA | -0.209 |
| ATGGGTGA | 0.0908 |
| CCGACACG | -0.273 |
| CTCTCTAC | -0.0716 |
| GGGCACCA | -0.025 |
| CGGTCGCA | -0.177 |
| GTTCCACA | -0.0745 |
| ACAAGTAC | 0.0992 |
| CACAGCAC | -0.183 |
| GGCTACAC | -0.0691 |
| AGGACAAG | -0.168 |
| AATTTTCG | 0.00815 |
| GGATCAAA | 0.189 |
| AAAGACGA | -0.0727 |
| GGATCGCC | -0.0607 |
| AGGGAGAG | -0.0798 |
| GACAGGTA | 0.219 |
| ATGTTTCA | 0.161 |
| GAAGGGAC | -0.0755 |

| Sequence | PBM E-score |
| --- | --- |
| AAGACCAT | 0.101 |
| CCGGGACC | 0.0253 |
| CGTATATA | -0.0637 |
| CTCACAAG | 0.138 |
| GAGATCAA | 0.0561 |
| AAGCTGAT | -0.0964 |
| CCCCGAAG | -0.0603 |
| CCTATAGA | 0.026 |
| AGTTCTCC | -0.158 |
| GCTTGTAA | 0.114 |
| CTAAATCC | -0.0277 |
| ATCCATGG | -0.0192 |
| CGGGATTC | 0.0975 |
| AACGCTAA | -0.143 |
| CTTTGGTC | 0.212 |
| AGGTAGGC | -0.0588 |
| AGCACTAA | 0.00056 |
| CACGTCGA | -0.158 |
| CATTGAGG | -0.0652 |
